# From PubChem BioAssay AID463173 (ICCB-Longwood Screening Facility, Harvard Medical School, 2010)
# The whole screen tested about 52,000 compounds, of which about 4,300 (8.3%) were called active. No stated cut-off is given here; in the data, active means survival mostly below about 52% (no sharp cut-off); inactive means mostly above about 56%. The list shows a part of the results.
# System: DeltatarO mutant
# Test: S. aureus survival, RN4220 and DeltatarO strains – OD600, teichoic acid synthesis inhibitors, primary screen (AID 463173)
# Conditions: S. aureus RN4220 wild type/DeltatarO growth, OD600, 18 h, active compounds read low, screened at 18.75 µg/mL (by protocol)
row,Structure (SMILES),survival
1,Cc1c(C(=O)N(C)C)sc2c1c(=O)n(-c1ccccc1C(F)(F)F)c(=O)n2Cc1cccc(F)c1,inactive: 78%
2,COc1ccc(C(=O)Nc2nc3c(s2)Cc2cc(OC)ccc2-3)cc1,inactive: 55%
3,COc1ccc(NC(=O)CSc2oc(-c3ccco3)nc2S(=O)(=O)c2ccccc2)c(OC)c1,inactive: 115%
4,CC(C)C(c1nnnn1C1CCCC1)N1CCOCC1 (stereo unspecified),inactive: 91%
5,Cc1ccccc1NCc1nc2ccccc2n1CCOc1ccccc1,active: 0%
6,O=S(=O)(NCCN1CCOCC1)c1cccc(C(F)(F)F)c1,inactive: 104%
7,COC(=O)Nc1ccc2c(c1)N(C(=O)CCN1CCOCC1)c1ccccc1S2,inactive: 73%
8,CN(C(=O)Cn1nnc(-c2ccc(S(C)(=O)=O)cc2)n1)c1ccccc1,inactive: 73%
9,CCC(Sc1nnc2c3ccccc3n(C)c2n1)C(=O)Nc1nnc(C(C)C)s1 (stereo unspecified),inactive: 48%
10,CCOc1ccc(NC(=O)CSc2nc(=O)[nH]c3c2CCC3)cc1,inactive: 71%
11,CN1C(=O)/C(=C2/Sc3ccccc3N2C)SC1=NC1CCCCC1,inactive: 84%
12,O=C(CN1CCC(n2nnc3cc(F)ccc32)CC1)NCCc1ccccc1,inactive: 95%
13,O=C(Oc1ccccc1-c1nc(-c2ccccc2)no1)c1ccccc1,inactive: 85%
14,CCOC(=O)C1=C(C)OC(N)=C(C(=O)OCC)C1c1ccncc1 (stereo unspecified),inactive: 78%
15,CCc1ccc(NC(=O)CSc2nc3c([nH]c4ccccc43)c(=O)n2-c2cccc(OC)c2)cc1,inactive: 102%
16,CCCCCn1c(=O)c2c(nc3n2CCN3c2ccc(Br)cc2)n(C)c1=O,inactive: 80%
17,COc1cc(C)ccc1OCCSc1nc2ccc(NC(C)=O)cc2s1,inactive: 65%
18,COc1ccc(CNC(=O)c2cn(-c3cccc(OC)c3)c(=O)c3ccccc23)cc1,inactive: 67%
19,Cc1ccc(C(=O)NC2(C(F)(F)F)N=C(c3ccccc3)N(C3CCCCC3)C2=O)cc1 (stereo unspecified),inactive: 62%

row,Structure (SMILES),survival
1,CCOC(=O)c1c(C)c(-c2ccccc2)n(CC(=O)Nc2cccc(C)c2C)c1C,inactive: 87%
2,COc1ccc(C(=O)NCC(c2ccc3c(c2)OCO3)N2CCOCC2)cc1OC (stereo unspecified),inactive: 70%
3,CC(=O)Nc1ccc(Nc2ncnc3sc4c(c23)CCCC4)cc1,inactive: 76%
4,CCc1cc2c(cc3c(=O)n(CC(=O)NCCOC)nc(CC)n32)s1,inactive: 75%
5,Cc1ccc2nc(N(Cc3cccnc3)C(=O)CCOc3ccccc3)sc2c1,inactive: 90%
6,Cc1cccc(C(=O)N2CCc3cc(CNS(=O)(=O)c4cccs4)ccc32)c1,inactive: 74%
7,Cc1ccc(C)c(CNC(=O)c2sc3ncnc(N(C)C4CCCCC4)c3c2C)c1,inactive: 115%
8,CCC1CN(C(=O)N2CCC(C(=O)N3CCN(c4cc(C)ccc4C)CC3)CC2)c2ccccc2O1 (stereo unspecified),active: 36%
9,COC(=O)COc1ccc(Oc2nc(NC(C)(C)C)nc(N(C)C)n2)nn1,inactive: 70%
10,NC(=O)C1CCN(C(=S)NCCc2ccccc2)CC1,inactive: 69%
11,CC(Sc1nc2c([nH]c3ccccc32)c(=O)n1-c1ccccc1)c1ccccc1 (stereo unspecified),inactive: 77%
12,CCCCn1c(=O)nc2n(-c3ccc(F)cc3)c3ccccc3cc-2c1=O,active: 41%
13,COc1ccc(S(=O)(=O)N(C)CC(=O)NCc2ccc3c(c2)OCO3)cc1,inactive: 89%
14,CCOC(=O)C1CCN(C(=O)c2ccc3c(c2)N=C(CC)c2cc(C)ccc2S3)CC1,active: 36%
15,Cc1ccc(-c2cc(C(F)(F)F)n3ncc(-c4ccc(Cl)cc4)c3n2)cc1,inactive: 65%
16,O=C(O)c1ccc(C2Nc3ccccc3-c3nnc(SCc4ccc(Cl)cc4)nc3O2)cc1 (stereo unspecified),inactive: 85%
17,O=C(c1ccco1)N1CCN(C(=O)c2cnn(-c3cccc(F)c3)c2C2CCNCC2)CC1,inactive: 89%
18,Cc1cccc(-c2nc(SCC(=O)N(C)c3ccccc3)c3c(=O)n(C)c(=O)n(C)c3n2)c1,inactive: 74%
19,COc1ccccc1OCc1nc(-c2cccc(C)c2)no1,active: -3%

row,Structure (SMILES),survival
1,COc1cccc(C(=O)Nc2ccc(C(=O)OCc3cc(=O)n4nc(C5CC5)sc4n3)cc2)c1,inactive: 79%
2,Cn1c(=O)cc(SCC(=O)N2CCN(c3ccccc3)CC2)c2ccccc21,inactive: 87%
3,O=C(c1cccc(Cl)c1)N1CCC(c2nc3ccccc3o2)CC1,inactive: 85%
4,O=C(Cn1c(=O)n2nc(-c3cccc(F)c3)nc2c2ccccc21)N1CCN(c2ccccc2F)CC1,inactive: 116%
5,CC1CCN(C(=O)C(C)Sc2nc(-c3ccccc3)cc(C(F)(F)F)n2)CC1 (stereo unspecified),active: -1%
6,COc1ccccc1NC(=O)C1=C(C)Nc2nc(SCc3cccc(F)c3)nn2C1c1ccc(C(=O)O)cc1 (stereo unspecified),inactive: 170%
7,COc1cccc(CNC(=O)c2cc3ccc4cccnc4c3[nH]2)c1,inactive: 83%
8,Cc1occc1-c1nnc(SCC(=O)Nc2ccc3c(c2)OCO3)n1CC(C)C,inactive: 63%
9,O=C(c1ccco1)N1CCCC(c2nc(-c3ccc(S(=O)(=O)NCc4ccccc4)cc3)no2)C1 (stereo unspecified),inactive: 74%
10,O=C(CSc1nc2c(cnn2-c2ccc(F)cc2)c(=O)[nH]1)Nc1ccccc1C(F)(F)F,inactive: 106%
11,CC1CCc2c(sc(NC(=S)NC(=O)c3ccn(C)n3)c2C(N)=O)C1 (stereo unspecified),inactive: 99%
12,CCC(=O)N1CCc2cc(S(=O)(=O)CCC(=O)NCc3ccc(OC)cc3)ccc21,inactive: 121%
13,Cc1ccc(CNc2oc(-c3ccc(COc4ccc(C)cc4)o3)nc2C#N)cc1,inactive: 65%
14,CCCOc1ccc(C(=O)NCC2OCCc3ccccc32)cc1 (stereo unspecified),inactive: 49%
15,Cc1ccc(NC(=O)c2c(C)nc3sc(C(=O)Nc4ccc(F)cc4)c(N)c3c2-c2ccc(C)o2)c(C)c1,inactive: 60%
16,CC1CN(C(=O)CCC(=O)Nc2cc(F)ccc2F)c2ccccc2S1 (stereo unspecified),inactive: 51%
17,Cc1ccc(C)c(NC(=O)Cn2c(=O)n(-c3ccc(CC(=O)NCC4CCCO4)cc3)c(=O)c3ccccc32)c1 (stereo unspecified),inactive: 99%
18,O=C(Nc1ccc(Cl)cc1F)c1cnc2sc(N3CCOCC3)nn2c1=O,inactive: 73%
